US7691969B2, “Isolated GRP94 ligand binding domain polypeptide and nucleic acid encoding same, crystalline form of same, and screening methods employing same” (Duke University, priority 2001, dated 2010)

Molecular target: T1, GRP94 (Sus scrofa, UniProt Q29092)
T1 construct: GRP94 was purified from porcine pancreas rough microsomes; from tissue; host or cells: porcine pancreas rough microsomes (lumenal contents)
Assay type: biochemical, porcine
Details: bis-ANS treated GRP94; ten-fold molar excess [125I]-VSV8, 30 min 37° C.

T1 sequence (Q29092 22-804): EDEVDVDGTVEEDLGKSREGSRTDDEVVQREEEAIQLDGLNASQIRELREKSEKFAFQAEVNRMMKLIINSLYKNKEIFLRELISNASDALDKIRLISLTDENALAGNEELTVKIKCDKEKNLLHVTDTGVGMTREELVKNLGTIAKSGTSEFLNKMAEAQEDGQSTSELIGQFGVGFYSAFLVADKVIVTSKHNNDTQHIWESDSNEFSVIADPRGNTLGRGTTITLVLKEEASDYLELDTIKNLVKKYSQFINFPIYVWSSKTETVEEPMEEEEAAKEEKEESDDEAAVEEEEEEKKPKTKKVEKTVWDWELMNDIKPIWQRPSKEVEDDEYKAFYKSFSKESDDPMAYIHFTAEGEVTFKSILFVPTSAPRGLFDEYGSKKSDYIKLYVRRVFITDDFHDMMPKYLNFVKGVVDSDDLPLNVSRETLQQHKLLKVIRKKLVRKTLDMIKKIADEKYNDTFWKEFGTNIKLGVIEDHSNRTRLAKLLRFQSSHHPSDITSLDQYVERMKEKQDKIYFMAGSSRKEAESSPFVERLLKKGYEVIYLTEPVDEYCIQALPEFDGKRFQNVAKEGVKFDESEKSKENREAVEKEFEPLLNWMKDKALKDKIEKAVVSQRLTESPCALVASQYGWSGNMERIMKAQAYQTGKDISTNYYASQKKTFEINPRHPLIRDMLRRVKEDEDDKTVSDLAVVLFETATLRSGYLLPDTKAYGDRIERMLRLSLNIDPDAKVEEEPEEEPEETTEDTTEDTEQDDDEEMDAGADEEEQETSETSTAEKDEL

4,4′-dianilino-1,1-binaphthyl-5,5-disulfonic acid [bis-ANS]
stimulation of GRP94 peptide binding activity: approximately a four to five-fold stimulation over native protein
